The other results are listed elsewhere or left out.
The compounds below were run on T1, C. trachomatis L2/434/Bu expressing GFP (CTL2-GFP). Conditions: total inclusion area; 28.5 h, 10 µM; inhibitor.
T1 construct: L2/434/Bu GFP intracellular growth in HeLa cells
Set-up: species or system HeLa; C. trachomatis total inclusion area by high-content imaging, normalised to DMSO
Outline: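 Imaging read-out: GFP inclusions and Hoechst nuclei captured by high-content imaging after fixation. Inclusion area/number = chlamydial growth; nuclei count = host cell viability. MIC calculated per earlier method.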
With `O=C(NCCn1ccnc1)C1CC(=O)N(c2cccc(F)c2)C1` (stereo not drawn) [CBK281582] the “% of control remaining” value was 94.8421. In the case of `Cc1ccc(O)c(Nc2ncnc3ccc(Br)cc23)c1` [CBK269028C], the “% of control remaining” value is reported as 100.289. In the case of `O=C(O)c1nc2n(n1)C(C(F)(F)F)CC(c1cccs1)N2` (stereo not drawn) [CBK026415], the “% of control remaining” value is reported as 73.2318. `Cc1c(C(=O)N(C)C2CCNC2)nnn1-c1ccc2ncccc2c1` (stereo not drawn) [CBK304698] was tested, and the “% of control remaining” value was 47.6688. For `Cc1cc(C)c2c(n1)sc1c(N3CCC(C(=O)O)CC3)ncnc12` [CBK300512], the “% of control remaining” value was 95.933. For `O=C(NCCc1cccs1)Nc1ccc(F)c(F)c1` [CBK043951], the “% of control remaining” value was 86.3864. With `CCc1nc2sc(C(N)=O)c(N)c2c2c1CCCC2` [CBK131872] the “% of control remaining” value was 118.085. With `Nc1nnc(SCCC(=O)N2CCN(c3ccc(F)cc3)CC2)s1` [CBK304597] the “% of control remaining” value was 55.9154. In the case of `CC(C)(C)c1ccc(COn2c(=O)c(-c3ccccc3Cl)[n+]([O-])c3ccccc32)cc1` [CBK267494], the “% of control remaining” value is reported as 101.163. With `COC(=O)c1sc2cc(NC(=S)NCc3ccc(S(N)(=O)=O)cc3)ccc2c1Cl` [CBK267094] the “% of control remaining” value was 111.34. In the case of `O=C(c1ccc(OC(F)F)cc1)N1CCCc2cc(S(=O)(=O)N3CCCCC3)ccc21` [CBK295621], the “% of control remaining” value is reported as 100.164. With `O=S(=O)(NCc1ccc(C(F)(F)F)c(F)c1)c1cccc2nsnc12` [CBK062113] the “% of control remaining” value was 104.019. `Cc1ncncc1C(=O)N1CCCCC1CCc1ccccc1` (stereo not drawn) [CBK282264] was tested, and the “% of control remaining” value was 99.0117. For `O=C(Cn1c(C2CCNCC2)cc2cccnc21)NC1CCCC1` [CBK285002], the “% of control remaining” value was 96.8877. For `CC(=O)Nc1ccc(-c2nc3cnccc3o2)cc1` [CBK287975], the “% of control remaining” value was 91.7131. With `CSc1sc(C(=O)CC#N)c2c1C=CCC2` [CBK006004] the “% of control remaining” value was 80.7933. With `CC1Oc2ccccc2OC1C(=O)Nc1nnc(Cc2ccccc2)s1` (stereo not drawn) [CBK295634] the “% of control remaining” value was 77.3503. In the case of `COc1ccc(OCCN2CCC3(CC2)CN(S(C)(=O)=O)c2ccccc23)cc1` [CBK126681], the “% of control remaining” value is reported as 0.02868. With `CCOC(=O)CC(=O)CSc1nc(C)cc(-c2cccs2)c1C#N` [CBK267446] the “% of control remaining” value was 112.802. In the case of `CCCCNS(=O)(=O)c1ccc(OCC(=O)O)cc1` [CBK268550], the “% of control remaining” value is reported as 88.0928. With `OCCc1ccc(Nc2cc(-c3cccnc3)ncn2)cc1` [CBK090768] the “% of control remaining” value was 94.2509. In the case of `N#C/C(=C\c1cn(-c2ccccc2)nc1-c1cccc(S(=O)(=O)N2CCOCC2)c1)c1nc2ccccc2c(=O)[nH]1` [CBK266357], the “% of control remaining” value is reported as 127.135. For `Cc1nn(CC(=O)N2CCCCC2)c(=O)c2cc3ccsc3n12` [CBK284078], the “% of control remaining” value was 109.126. `CN(C)CCN(C)c1cncc(-c2cccc3ccccc23)n1` [CBK065709] was tested, and the “% of control remaining” value was 137.201. With `COc1ccc(C2CCCN2S(=O)(=O)c2ccccc2[N+](=O)[O-])cc1OC` (stereo not drawn) [CBK295309] the “% of control remaining” value was 85.0576. `O=C(Cc1ccccc1F)N1CCCC(c2cnccn2)C1` (stereo not drawn) [CBK284601] was tested, and the “% of control remaining” value was 114.509. In the case of `CCN1CCc2nc(NC(=O)c3ccc(Cl)cc3)sc2C1` [CBK287644], the “% of control remaining” value is reported as 89.8325. `CC(=O)N1CCN(c2nnc(-c3ccccc3)o2)CC1` [CBK170332] was tested, and the “% of control remaining” value was 81.4536. With `CCCc1cc(=O)n2c(n1)SCOC2` [CBK010967] the “% of control remaining” value was 44.539. In the case of `COc1ccc(C(=O)O)cc1NC(=S)NC(=O)c1ccc(-c2cc(Cl)ccc2Cl)o1` [CBK265074], the “% of control remaining” value is reported as 123.957. In the case of `CCc1cc(CNC(=O)C2CC3C=CC2C32CC2)on1` (stereo not drawn) [CBK282071], the “% of control remaining” value is reported as 85.7335. With `COc1ccc(C2=C(CC(=O)O)C(=O)CC2)cc1` [CBK264812] the “% of control remaining” value was 106.092. `Cc1cc(COC(=O)N2CCSCC2)cc(C)n1` [CBK200153] was tested, and the “% of control remaining” value was 95.0696. For `CC(CCCC(C)(C)O)Nc1cncc(-c2ccccc2CO)n1` (stereo not drawn) [CBK065529], the “% of control remaining” value was 102.793. With `O=C1NC2(CCCCC2)C(=O)N1Cc1cnn(-c2ccccc2)n1` [CBK305570] the “% of control remaining” value was 90.4462. For `Clc1cccc(-c2cc(NCc3cccs3)n3nccc3n2)c1` [CBK037238], the “% of control remaining” value was 103.59. In the case of `CN(Cc1nc(-c2ccccc2)no1)C(=O)COCC1CCCCO1` (stereo not drawn) [CBK307643], the “% of control remaining” value is reported as 62.3724. With `Cn1cnnc1CNC(=O)N1CCN(Cc2cccs2)CC1` [CBK305045] the “% of control remaining” value was 85.7021. For `CC(=O)Nc1cccc(C(C)NC(=O)N(C)C2CCc3ccccc32)c1` (stereo not drawn) [CBK306251], the “% of control remaining” value was 80.6705. In the case of `COc1cccc(NC(=O)N2CCC(n3c(=O)n(C(=O)Nc4cccc(OC)c4)c4ccccc43)CC2)c1` [CBK149177], the “% of control remaining” value is reported as 77.2903. With `Cc1cccc2cc(/C=C(\C#N)c3nc(-c4cc5ccccc5oc4=O)cs3)c(Cl)nc12` [CBK261642] the “% of control remaining” value was 94.8993. `O=C(O)c1ccc(NC(=S)NC(NC(=O)c2ccco2)C(Cl)(Cl)Cl)cc1` (stereo not drawn) [CBK261025] was tested, and the “% of control remaining” value was 88.4148. `COC(=O)c1sc(NC(=O)C2CC2)c(C#N)c1C` [CBK026049] was tested, and the “% of control remaining” value was 73.9464. For `O=C(NCn1nnc2ccccc21)c1ccccc1` [CBK056950], the “% of control remaining” value was 62.1258. `COc1ccc(NC(=O)c2ccc(CN3CCOCC3)cc2)c(OC)c1` [CBK263790] was tested, and the “% of control remaining” value was 103.605. `CSc1nnc(C2CCCN2C(=O)[C@@H]2C[C@@H]3C=C[C@H]2C3)n1C` (stereo partly drawn) [CBK282012] was tested, and the “% of control remaining” value was 111.39. `COc1ccc2c(c1)C1(CC(=O)N(CC3CCCCC3)C1=O)C(=O)N2C` (stereo not drawn) [CBK075201] was tested, and the “% of control remaining” value was 101.526. For `CC1(C)C(N(O)C(=O)Nc2cccc3ccccc23)N(c2cccc3ccccc23)C(=O)N1CC(=O)NN` (stereo not drawn) [CBK261004], the “% of control remaining” value was 96.6898. `CC(C)NC(=O)[C@H]1O[C@H](CCN2CCOCC2)CC[C@@H]1O` [CBK288720] was tested, and the “% of control remaining” value was 124.593. With `Cc1noc(C)c1NC(=O)c1cc2ccccc2n1C` [CBK200311] the “% of control remaining” value was 140.925. In the case of `COC(=O)[C@H]1CN(C(=O)c2cccs2)C[C@@H]1c1ccc(F)cc1` [CBK283732], the “% of control remaining” value is reported as 82.1103. With `Cc1cc(CN(C)c2nccc(N3CCN[C@H]4CS(=O)(=O)C[C@H]43)n2)no1` [CBK306580] the “% of control remaining” value was 47.9969. For `CCOc1cc(C(=S)N2CCCCC2)ccc1OC(=O)c1ccccc1Cl` [CBK019660], the “% of control remaining” value was 94.6757. `CCOC(=O)N/N=C(/C)C(C)(C)C` [CBK016460] was tested, and the “% of control remaining” value was 106.585. `Cc1cccc(OCCCn2cncc2-c2cn(C)nc2C)c1` [CBK281766] was tested, and the “% of control remaining” value was 115.045. With `COCCNc1nccnc1-c1cccc(C(F)(F)F)c1` [CBK037330] the “% of control remaining” value was 54.9433. In the case of `COc1ccc(CN2CCN(c3nccnc3OC)CC2)cc1` [CBK084216], the “% of control remaining” value is reported as 91.9344. With `CC(=O)N[C@H](Cc1c[nH]c2ccccc12)C(=O)N1CC[C@H]2NC(=O)[C@H](Cc3ccccc3)NC(=O)C3(C/C=C/C[C@H]2C1)CCOCC3` [CBK292205] the “% of control remaining” value was 93.6471. In the case of `Cc1ccc(Cl)cc1NC(=O)C1CC(=O)N(Cc2ccccn2)C1` (stereo not drawn) [CBK305561], the “% of control remaining” value is reported as 92.1915. In the case of `c1csc(CNc2c(-c3cccs3)nc3cnccn23)c1` [CBK283685], the “% of control remaining” value is reported as 92.6517. With `Nc1cc(C(=O)c2ccc(Br)c(N)c2)ccc1Cl` [CBK269708] the “% of control remaining” value was 99.8262. With `COc1ccc(C(NC(=O)NNC(=O)Cc2ccc(Cl)cc2)c2ccccc2C)cn1` (stereo not drawn) [CBK083660] the “% of control remaining” value was 76.2386. `CC(=O)Nc1ccc(S(=O)(=O)N2CCN(C(=O)COc3ccc(C)cc3)CC2)cc1` [CBK264268] was tested, and the “% of control remaining” value was 95.2661. `NCCCNC(=O)c1ccc(-c2cccc(C(F)(F)F)c2)o1` [CBK107454] was tested, and the “% of control remaining” value was 96.762. For `O=[N+]([O-])c1ccc(CN2CCC(Oc3cncc(OCCN4CCOCC4)n3)C2)cc1` (stereo not drawn) [CBK084485], the “% of control remaining” value was 98.7814. In the case of `O=S(=O)(O)CCCSc1nc2ccccc2s1` [CBK260900N], the “% of control remaining” value is reported as 80.7513. For `CCCCc1c(C)nc2ccc(Br)cc2c1SCCC(=O)O` [CBK126915], the “% of control remaining” value was 104.577. With `CCc1nnc(N/N=C/c2cccs2)n1N` [CBK026233C] the “% of control remaining” value was 56.4356. With `Cn1nc(C2CCCN(C(=O)C3CC3)C2)c2cccnc21` (stereo not drawn) [CBK282654] the “% of control remaining” value was 109.667. In the case of `N=C1NC(=O)C(CC(=O)Nc2cccc([N+](=O)[O-])c2)S1` (stereo not drawn) [CBK263944], the “% of control remaining” value is reported as 98.4593. `Cc1nn(C)cc1S(=O)(=O)N1CCCC(c2cccc(Cc3ccccc3Cl)n2)C1` (stereo not drawn) [CBK286127] was tested, and the “% of control remaining” value was 112.171. In the case of `Cc1ccc(-c2ccc(CCC(=O)O)n2NC(=O)c2ccc([N+](=O)[O-])cc2)cc1` [CBK264776], the “% of control remaining” value is reported as 116.422. For `O=C(O)COCc1nn(-c2ccc(Br)cc2)c2c1CCCC2` [CBK016404], the “% of control remaining” value was 23.9803. For `O=C(Nc1cccc(C(F)(F)F)c1)N[C@H]1CO[C@H]2[C@@H]1OC[C@H]2O` [CBK289476], the “% of control remaining” value was 93.038. With `COCCN(Cc1cnn(C)c1)C(=O)Cc1ccc(Cl)cc1` [CBK307407] the “% of control remaining” value was 70.2694. For `CC(C)OC(=O)c1cc2c(ccn2-c2ccc(F)cc2)n1CCC#N` [CBK123921], the “% of control remaining” value was 82.9873. In the case of `Cc1n[nH]c(NCc2cccc(Cl)c2Cl)n1` [CBK288037], the “% of control remaining” value is reported as 91.8742. `COC(C)(C)C(=O)N1CCCC(c2ccc(Cc3cccc(C(F)(F)F)c3)cn2)C1` (stereo not drawn) [CBK286124] was tested, and the “% of control remaining” value was 89.8811. `COc1ccc2[nH]cc(CCNC(=O)c3ccc(NC(C)=O)cc3)c2c1` [CBK269296] was tested, and the “% of control remaining” value was 92.9101. In the case of `Cc1ccn(-c2ccc(N3CCC4(CC3)OCCO4)nn2)n1` [CBK305263], the “% of control remaining” value is reported as 55.1936. With `CN(C)c1nc(N)nc(COc2ccccc2F)n1` [CBK288236] the “% of control remaining” value was 89.147.

— PMC12040169 (PLOS Biology, 2025)
